Several values for one entry are separate records, joined by “and”; a condition that tells them apart may be missing. Equal entries are not always repeated. Where two headings read alike, the source gives them in different places.
What was measured:
[1] = system: E. coli strain #G1108E septicemia; assay: Single treatment model of septicemia (bacteria in blood); type: in vivo, mice
[2] = system: E. coli strain #G1108E septicemia; type: in vivo, mice; settings: bacteria per milliliter blood, repeated treatments

Substance: Melittin (1-20)-Lys-Arg-Lys-Arg-Gln-Gln-NH2.
- significance of the treatment mean (Tukey's multiple mean comparison) ([1]; bacteria per milliliter of blood, single treatment): lacked statistical significance
- Bacteria/ml Blood ([1]; single treatment 30 min after infection, subcutaneous, melittin 50 ng, polymyxin B 2 ug, blood 21 hours after inoculation, individual mice, listed as melittlin): 3.52 Log1Ø Bacteria/ml Blood and 2.34 Log1Ø Bacteria/ml Blood and 1.61 Log1Ø Bacteria/ml Blood
- significance of the treatment mean (Tukey's multiple mean comparison) [2]: lacked a significant difference

Substance: Polymyxin B
- significance of the treatment mean (Tukey's multiple mean comparison) [2]: significant decrease
